# The other results are listed elsewhere or left out.
# B1: LSectin (Mus musculus), Q8BNX1 (protein)
# chain: MNTGEYNKLGSAIEEVSRGQLGRWECYKQRLFFLVLALLVATVLWALILSTLLSSASSKLRVLLSHQDLLRTNASEQKMTLSSLKDDIGACRNCCSVTKAQLQTTLAEFKDIQAKLMEQESILKELQERVTQDLAKASRDRENIRSELFQALEAVKRQNSSCEQCPPSWLPFQGSCYYFSETQATWDTAQSYCGGQGAHLVIVRGLNEQGFLSQHTRGRGYWLGLRAVRHLNKIQGYRWVDGASLNFSHWNSGEPNDSRGHEDCIMMLHSGLWNDAPCTNERDGWICEKRSSCY
# Experiments:
# Assay in all cases: glycan array binding signal (z-score within array); higher = stronger binding
# Details in all cases: glycan notation: IUPAC condensed, linker removed
# [1] = target: GlcNAc(a1-4)Gal(b1-3)GlcNAc
# Summary of the method: (§1)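 Negative Z-scores can be read as non-binding. The Z-score is calculated within each array and then averaged across arrays of one protein sequence at different concentrations or buffers and across linkers. Arrays, 3228 in all, were curated from the Consortium for Functional Glycomics database and kept only where the protein sequence was available.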
# [2] = target: GlcNAc(a1-4)Gal(b1-4)GalNAc
# Summary of the method: as §1
# [3] = target: GlcNAc(a1-4)Gal(b1-4)GlcNAc
# Summary of the method: as §1
# [4] = target: GlcNAc(a1-4)Gal(b1-4)GlcNAc(b1-3)Gal(b1-4)Glc
# Summary of the method: as §1
# [5] = target: GlcNAc(a1-4)Gal(b1-4)GlcNAc(b1-3)Gal(b1-4)GlcNAc
# Summary of the method: as §1
# [6] = target: GlcNAc(a1-4)Gal(b1-4)GlcNAc(b1-3)Gal(b1-4)GlcNAc(b1-3)Gal(b1-4)GlcNAc
# Summary of the method: as §1
# [7] = target: GlcNAc(a1-4)Gal(b1-4)GlcNAc(b1-3)Gal(b1-4)[Fuc(a1-3)]GlcNAc(b1-3)Gal(b1-4)[Fuc(a1-3)]GlcNAc
# Summary of the method: as §1
# [8] = target: GlcNAc(a1-6)Gal(b1-4)GlcNAc
# Summary of the method: as §1
# [9] = target: GlcNAc(b1-2)Gal(b1-3)GalNAc
# Summary of the method: as §1
# [10] = target: GlcNAc(b1-2)Man(a1-3)[GlcNAc(b1-2)Man(a1-6)]Man(b1-4)GlcNAc(b1-4)GlcNAc
# Summary of the method: as §1
# [11] = target: GlcNAc(b1-2)Man(a1-3)[GlcNAc(b1-2)Man(a1-6)]Man(b1-4)GlcNAc(b1-4)[Fuc(a1-6)]GlcNAc
# Summary of the method: as §1
# [12] = target: GlcNAc(b1-2)Man(a1-3)[GlcNAc(b1-4)][GlcNAc(b1-2)Man(a1-6)]Man(b1-4)GlcNAc(b1-4)GlcNAc
# Summary of the method: as §1
# [13] = target: GlcNAc(b1-2)[GlcNAc(b1-4)]Man(a1-3)[GlcNAc(b1-2)Man(a1-6)]Man(b1-4)GlcNAc(b1-4)GlcNAc
# Summary of the method: as §1
# [14] = target: GlcNAc(b1-2)[GlcNAc(b1-4)]Man(a1-3)[GlcNAc(b1-4)][GlcNAc(b1-2)Man(a1-6)]Man(b1-4)GlcNAc(b1-4)GlcNAc
# Summary of the method: as §1
# [15] = target: GlcNAc(b1-2)[GlcNAc(b1-4)]Man(a1-3)[GlcNAc(b1-4)][GlcNAc(b1-2)[GlcNAc(b1-6)]Man(a1-6)]Man(b1-4)GlcNAc(b1-4)GlcNAc
# Summary of the method: as §1
# [16] = target: GlcNAc(b1-2)[GlcNAc(b1-6)]Man(a1-6)[GlcNAc(b1-2)Man(a1-3)]Man(b1-4)GlcNAc(b1-4)GlcNAc
# Summary of the method: as §1
# [17] = target: GlcNAc(b1-2)[GlcNAc(b1-6)]Man(a1-6)[GlcNAc(b1-2)Man(a1-3)][GlcNAc(b1-4)]Man(b1-4)GlcNAc(b1-4)GlcNAc
# Summary of the method: as §1
# GlcNAc(b1-3)Gal = target: GlcNAc(b1-3)Gal
# Summary of the method: as §1
# [18] = target: GlcNAc(b1-3)Gal(b1-3)GalNAc
# Summary of the method: as §1
# GlcNAc(b1-3)Gal(b1-4)Glc = target: GlcNAc(b1-3)Gal(b1-4)Glc
# Summary of the method: as §1
# [19] = target: GlcNAc(b1-3)Gal(b1-4)GlcNAc
# Summary of the method: as §1
# [20] = target: GlcNAc(b1-3)Gal(b1-4)GlcNAc(b1-3)Gal(b1-4)GlcNAc
# Summary of the method: as §1
# GlcNAc(b1-3)GalNAc = target: GlcNAc(b1-3)GalNAc
# Summary of the method: as §1
# GlcNAc(b1-3)Man = target: GlcNAc(b1-3)Man
# Summary of the method: as §1
# [21] = target: GlcNAc(b1-3)[GlcNAc(b1-4)][GlcNAc(b1-6)]GlcNAc
# Summary of the method: as §1
# [22] = target: GlcNAc(b1-3)[GlcNAc(b1-6)]Gal(b1-4)GlcNAc
# Summary of the method: as §1
# [23] = target: GlcNAc(b1-3)[GlcNAc(b1-6)]GalNAc
# Summary of the method: as §1
# [24] = target: GlcNAc(b1-4)Gal(b1-4)GlcNAc
# Summary of the method: as §1
# GlcNAc(b1-4)GlcNAc = target: GlcNAc(b1-4)GlcNAc
# Summary of the method: as §1
# [25] = target: GlcNAc(b1-4)GlcNAc(b1-4)GlcNAc
# Summary of the method: as §1
# [26] = target: GlcNAc(b1-4)GlcNAc(b1-4)GlcNAc(b1-4)GlcNAc(b1-4)GlcNAc
# Summary of the method: as §1
# [27] = target: GlcNAc(b1-4)GlcNAc(b1-4)GlcNAc(b1-4)GlcNAc(b1-4)GlcNAc(b1-4)GlcNAc
# Summary of the method: as §1
# [28] = target: GlcNAc(b1-4)[GlcNAc(b1-6)]GalNAc
# Summary of the method: as §1
# [29] = target: GlcNAc(b1-6)Gal(b1-4)GlcNAc
# Summary of the method: as §1
# GlcNAc(b1-6)GalNAc = target: GlcNAc(b1-6)GalNAc
# Summary of the method: as §1
# GlcNAc3Prop(b1-4)GlcNAc = target: GlcNAc3Prop(b1-4)GlcNAc
# Summary of the method: as §1
# [30] = target: GlcNAc6S(b1-3)Gal(b1-4)GlcNAc
# Summary of the method: as §1
binder,measurement,setting,value
B1,glycan array binding signal (z-score),[1],-0.185
same,glycan array binding signal (z-score),[2],-0.185
same,glycan array binding signal (z-score),[3],-0.178
same,glycan array binding signal (z-score),[4],-0.178
same,glycan array binding signal (z-score),[5],-0.18
same,glycan array binding signal (z-score),[6],-0.183
same,glycan array binding signal (z-score),[7],-0.14
same,glycan array binding signal (z-score),[8],-0.159
same,glycan array binding signal (z-score),[9],-0.177
same,glycan array binding signal (z-score),[10],6.38
same,glycan array binding signal (z-score),[11],5.47
same,glycan array binding signal (z-score),[12],7.84
same,glycan array binding signal (z-score),[13],3.57
same,glycan array binding signal (z-score),[14],3.6
same,glycan array binding signal (z-score),[15],1.62
same,glycan array binding signal (z-score),[16],4.99
same,glycan array binding signal (z-score),[17],7.22
same,glycan array binding signal (z-score),GlcNAc(b1-3)Gal,-0.164
same,glycan array binding signal (z-score),[18],-0.165
same,glycan array binding signal (z-score),GlcNAc(b1-3)Gal(b1-4)Glc,-0.149
same,glycan array binding signal (z-score),[19],-0.174
same,glycan array binding signal (z-score),[20],-0.177
same,glycan array binding signal (z-score),GlcNAc(b1-3)GalNAc,-0.184
same,glycan array binding signal (z-score),GlcNAc(b1-3)Man,-0.173
same,glycan array binding signal (z-score),[21],-0.159
same,glycan array binding signal (z-score),[22],-0.171
same,glycan array binding signal (z-score),[23],-0.179
same,glycan array binding signal (z-score),[24],-0.166
same,glycan array binding signal (z-score),GlcNAc(b1-4)GlcNAc,-0.173
same,glycan array binding signal (z-score),[25],-0.188
same,glycan array binding signal (z-score),[26],-0.186
same,glycan array binding signal (z-score),[27],-0.184
same,glycan array binding signal (z-score),[28],-0.129
same,glycan array binding signal (z-score),[29],-0.156
same,glycan array binding signal (z-score),GlcNAc(b1-6)GalNAc,-0.176
same,glycan array binding signal (z-score),GlcNAc3Prop(b1-4)GlcNAc,-0.168
same,glycan array binding signal (z-score),[30],-0.172
